According to PubChem BioAssay (NCATS):
This list was built around the results that the source calls inconclusive (neither active nor inactive); the mix of calls is not that of the screen. Potencies beside an inconclusive call are fits to weak or partial responses and may not hold up. Calls of active or inactive are those of the source. Unless noted, calls follow the shape of the dose curve; as a rule, active = well fitted curve in the direction sought with a large enough effect; inconclusive = small, poorly fitted or top-dose-only effect, or another doubt; inactive = no such curve, though single readings can be large; an effect the other way counts as inactive or inconclusive.

How the values were obtained:
[1] = P-glycoprotein substrates identified in KB-8-5-11 adenocarcinoma cell line, qHTS therapeutic library screen (AID 1346987); also: nearly all actives have a fitted effect of over 65% in size; as to activity change, negative = cytotoxicity: % is scaled to controls: 0 for no effect and ±100 for the full control effect
In short: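 P-gp-mediated resistance screen: KB-8-5-11 cells treated 72 h with compounds in dose-response. CellTiter-Glo viability.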

[2] = Primary qHTS for inhibitors of nuclear receptor binding SET domain protein 2 (NSD2) in an isogenic RCH-ACV NSD2 p.E1099K mutant (9B) (AID 1645876); also: nearly all actives have a fitted effect of over 70% in size
[3] = Primary qHTS for inhibitors of nuclear receptor binding SET domain protein 2 (NSD2) in an RCH-ACV wild type WT cells (2C) (AID 1645877); conditions: activity change, negative = cell killing: at 44.9 µM (top of the series); also: nearly all actives have a fitted effect of over 70% in size
HEK293 = assay: Cytotoxic Profiling of Annotated Libraries Using Quantitative High-Throughput Screening (AID 1296008); conditions: Five cell lines viability, CellTiter-Glo ATP luminescence, 48-72 h; max response: hits give low values; also: nearly all actives have a fitted effect of over 60% in size; as to max response: % is scaled to controls: 0 for no effect and ±100 for the full control effect
In short: (§1)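 Cells exposed to compounds for 48 or 72 hr at 37 degrees Celsius. Viability read as ATP-coupled luminescence with CellTiter-Glo after 10 min at room temperature.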

NIH3T3 = assay: as above; conditions: Five cell lines viability, CellTiter-Glo ATP luminescence, 48-72 h; max response: hits give low values
In short: as §1

Hek293T = assay: Primary qHTS to identify gynecologic anti-cancer compounds using libraries of approved drugs and bioactive compounds (AID 1345084); conditions: Gynecologic cancer cell panel viability, ATPlite luminescence, 48 h, control line for the selectivity index; series mostly up to 57.5 µM; also: nearly all actives have a fitted effect of over 55% in size; as to activity change, negative = cytotoxicity: % is scaled to controls: 0 for no effect and ±100 for the full control effect
In short: (§2)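 Cell viability after 48 h drug treatment, ATPlite luminescence readout; five doses.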

OV90 = assay: as above; conditions: Gynecologic cancer cell panel viability, ATPlite luminescence, 48 h; series mostly up to 57.5 µM
In short: as §2

SKOV3 = assay: as above; conditions: Gynecologic cancer cell panel viability, ATPlite luminescence, 48 h; series mostly up to 57.5 µM
In short: as §2

[4] = target: Cytochrome P450 2D6 (Homo sapiens) (UniProt P10635); assay: Cytochrome P450 family 2 subfamily D member 6 (CYP2D6) small molecule antagonists: luciferase biochemical (cell-free) qHTS assay (AID 1645840; active = well fitted curve in the direction sought with a large enough effect in the repeat runs; inconclusive = weak or mixed curves; inactive = no such curve, though single readings can be large; an effect the other way counts as inactive or inconclusive; also: nearly all actives have a fitted effect of over 55% in size)
UniProt P10635, sequence (P10635 whole entry, looked up): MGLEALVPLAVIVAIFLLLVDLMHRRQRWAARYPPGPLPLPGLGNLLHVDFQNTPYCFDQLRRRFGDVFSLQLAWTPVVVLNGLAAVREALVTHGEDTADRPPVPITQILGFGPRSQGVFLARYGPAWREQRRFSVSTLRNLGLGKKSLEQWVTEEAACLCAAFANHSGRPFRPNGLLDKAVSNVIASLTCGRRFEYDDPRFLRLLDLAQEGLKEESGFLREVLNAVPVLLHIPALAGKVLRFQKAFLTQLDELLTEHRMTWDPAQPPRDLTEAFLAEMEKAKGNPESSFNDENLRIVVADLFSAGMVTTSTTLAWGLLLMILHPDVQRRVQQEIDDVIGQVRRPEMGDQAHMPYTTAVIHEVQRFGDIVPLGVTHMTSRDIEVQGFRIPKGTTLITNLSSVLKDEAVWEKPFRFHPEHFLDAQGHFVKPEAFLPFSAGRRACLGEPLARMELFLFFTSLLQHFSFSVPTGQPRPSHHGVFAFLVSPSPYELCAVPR
In short: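 P450-Glo luminescent screen: recombinant CYP2D6 enzyme–proluciferin substrate mix preincubated with compound 10 min at room temperature, then NADPH regeneration added for 1 h at room temperature. Detection reagent added for 20 min; luciferin light read as relative luminescence units.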

PA-1 = assay: Primary qHTS to identify gynecologic anti-cancer compounds using libraries of approved drugs and bioactive compounds (AID 1345084); conditions: Gynecologic cancer cell panel viability, ATPlite luminescence, 48 h; series mostly up to 57.5 µM; also: nearly all actives have a fitted effect of over 55% in size; as to activity change, negative = cytotoxicity: % is scaled to controls: 0 for no effect and ±100 for the full control effect
In short: as §2

Tov-21-G = assay: as above; conditions: Gynecologic cancer cell panel viability, ATPlite luminescence, 48 h; activity change, negative = cytotoxicity: at 57.5 µM (top of the series)
In short: as §2

C33A = assay: as above; conditions: Gynecologic cancer cell panel viability, ATPlite luminescence, 48 h; series mostly up to 57.5 µM
In short: as §2

CAOV3 = assay: as above; conditions: Gynecologic cancer cell panel viability, ATPlite luminescence, 48 h; series mostly up to 57.5 µM
In short: as §2

CASKI = assay: as above; conditions: Gynecologic cancer cell panel viability, ATPlite luminescence, 48 h; activity change, negative = cytotoxicity: at 57.5 µM (top of the series)
In short: as §2

JEG-3 = assay: as above; conditions: Gynecologic cancer cell panel viability, ATPlite luminescence, 48 h; series mostly up to 57.5 µM
In short: as §2
Potency is read from the fitted curve at half-maximal effect; tags tell the direction and shape of the fitted curve.

## c1ccc(OCc2ccc(CCCN3CCOCC3)cc2)cc1
[1]
  Potency: inconclusive: 29.1 µM [inhibitor, single point]
[2]
  Potency: inconclusive: 33.5 µM [inhibitor, single point]
[3]
  Potency: inconclusive: 29.9 µM [inhibitor, single point]
HEK293
  Potency: inconclusive: 33.5 µM [inhibitor, single point]
NIH3T3
  Potency: inconclusive: 23.7 µM [inhibitor, partial curve, poor fit]
Hek293T
  Potency: inconclusive: 28.2 µM [cytotoxic, partial curve, poor fit]
OV90
  Potency: inconclusive: 15.8 µM [cytotoxic, partial curve, poor fit]
SKOV3
  Potency: inactive

## CC(C)(Cc1c[nH]c2ccccc12)NCC(O)COc1ccccc1C#N (configuration not stated)
[2]
  Potency: inconclusive: 29.9 µM [inhibitor, single point]
[3]
  Potency: inconclusive: 23.7 µM [inhibitor, single point]
HEK293
  Potency: inconclusive: 33.5 µM [inhibitor, single point]
NIH3T3
  max response: inactive: -8.73%
OV90
  Potency: inconclusive: 39.8 µM [cytotoxic, single point]
SKOV3
  Potency: inconclusive: 39.8 µM [cytotoxic, single point]

## Oc1ccc(Cl)c2cccnc12
[4]
  Potency: inactive
[2]
  Potency: inconclusive: 23.7 µM [inhibitor, single point]
[3]
  Potency: inconclusive: 29.9 µM [inhibitor, single point]
HEK293
  Potency: inconclusive: 23.7 µM [inhibitor, single point]
NIH3T3
  Potency: inconclusive: 26.6 µM [inhibitor, single point]
PA-1
  Potency: inactive

## CC(O)CO[C@@H]1O[C@H](CO)[C@@H](O)[C@H](O)[C@H]1O (some centres not stated)
HEK293
  max response: inactive: -61.7%
NIH3T3
  max response: inactive: 0.151%

## OCC(CO)N[C@H]1C[C@](O)(CO)[C@@H](O)[C@H](O)[C@H]1O
[1]
  Potency: inactive
[3]
  Potency: inactive
HEK293
  outcome: inactive
NIH3T3
  max response: inactive: 3.34%
Tov-21-G
  Potency: inactive

## CCN(CC)CC#CCOC(=O)C(O)(c1ccccc1)C1CCCCC1 (configuration not stated)
[1]
  Potency: inconclusive: 20.6 µM [inhibitor, single point]
HEK293
  Potency: inconclusive: 23.5 µM [inhibitor, partial curve]
NIH3T3
  outcome: inactive

## COc1cc(C(=O)NS(=O)(=O)c2ccccc2C)ccc1Cc1cn(C)c2ccc(NC(=O)OC3CCCC3)cc12
[1]
  Potency: inconclusive: 29.6 µM [inhibitor, single point]
[4]
  Potency: inconclusive: 27.5 µM [inhibitor, single point]
[2]
  Potency: inactive
HEK293
  Potency: inconclusive: 26.4 µM [inhibitor, partial curve]
NIH3T3
  Potency: inconclusive: 37.2 µM [inhibitor, single point]

## CCOC(=O)[C@@](C)(N)Cc1ccc(O)c(O)c1
[2]
  Potency: inconclusive: 33.5 µM [inhibitor, single point]
[3]
  Potency: inconclusive: 33.5 µM [inhibitor, single point]
HEK293
  Potency: active: 18.8 µM
NIH3T3
  Potency: inconclusive: 33.5 µM [inhibitor, single point]
C33A
  Potency: inconclusive: 31.6 µM [cytotoxic, single point]
CAOV3
  Potency: inconclusive: 28.2 µM [cytotoxic, single point]
CASKI
  Potency: inconclusive: 39.8 µM [cytotoxic, single point]
OV90
  Potency: inactive
SKOV3
  Potency: inconclusive: 35.5 µM [cytotoxic, single point]

## O=C(OCC(O)CO)c1ccccc1Nc1ccnc2cc(Cl)ccc12 (configuration not stated)
[1]
  Potency: inconclusive: 12.4 µM [inhibitor, single point]
[4]
  Potency: active: 8.71 µM
HEK293
  Potency: inconclusive: 23.7 µM [inhibitor, single point]
NIH3T3
  Potency: inconclusive: 33.5 µM [inhibitor, single point]

## O=C(O)CNC(=O)CNC(=O)CNC(=O)CSC(=O)c1ccccc1
[2]
  Potency: inconclusive: 33.5 µM [inhibitor, single point]
[3]
  Potency: inconclusive: 23.7 µM [inhibitor, single point]
HEK293
  max response: inactive: -4.78%
NIH3T3
  max response: inactive: 1.99%
C33A
  Potency: inconclusive: 7.08 µM [cytotoxic, single point]
CAOV3
  Potency: inconclusive: 20 µM [rising, partial curve]
SKOV3
  Potency: inconclusive: 25.1 µM [rising, partial curve, poor fit]

## C[C@@H]1CN(CCCn2c3ccccc3c3ccccc32)C[C@H](C)N1
[4]
  Potency: inconclusive: 0.0871 µM [inhibitor, full curve, poor fit]
HEK293
  Potency: inconclusive: 29.9 µM [inhibitor, single point]
NIH3T3
  Potency: inconclusive: 33.5 µM [inhibitor, single point]
C33A
  Potency: active: 22.4 µM
CAOV3
  Potency: inconclusive: 28.2 µM [cytotoxic, partial curve, poor fit]
CASKI
  Potency: inconclusive: 35.5 µM [cytotoxic, single point]
Hek293T
  Potency: inconclusive: 39.8 µM [cytotoxic, single point]
JEG-3
  Potency: inconclusive: 35.5 µM [cytotoxic, single point]
OV90
  Potency: active: 25.1 µM
PA-1
  Potency: inconclusive: 39.8 µM [cytotoxic, single point]
SKOV3
  Potency: inconclusive: 39.8 µM [cytotoxic, single point]
Tov-21-G
  Potency: inconclusive: 31.6 µM [cytotoxic, single point]
